Reference: paper PMC9911399, “Two distinct binding modes provide the RNA-binding protein RbFox with extraordinary sequence specificity”
Numbering of substitutions follows the chain as printed; changes in the protein carry UniProt numbers. The list shows a part of the results.

T1: RBFOX1 RRM (Homo sapiens, UniProt Q9NWB1 109-208)
T1 sequence: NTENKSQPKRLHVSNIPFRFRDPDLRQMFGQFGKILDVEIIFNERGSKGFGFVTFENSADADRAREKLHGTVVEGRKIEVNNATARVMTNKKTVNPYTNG

B1: GCCACCA (DNA:RNA)
RNA: GGGAGACCGGAAUUCAGAUUGUCCGCCACCAUUAAAUCCCGUCGUAGCCACCA
DNA 1: CAATCTGAATTCCGGTCTCCC
DNA 2: TGGTGGCTACGACGGGATT
B2: UGAUUAG (DNA:RNA)
RNA: GGGAGACCGGAAUUCAGAUUGUCCUGAUUAGUUAAAUCCCGUCGUAGCCACCA
DNA 1: CAATCTGAATTCCGGTCTCCC
DNA 2: TGGTGGCTACGACGGGATT
B3: CGUUGGU (DNA:RNA)
RNA: B2 RNA with U25C, A27U, U29G, A30G, G31U
DNA 1: CAATCTGAATTCCGGTCTCCC
DNA 2: TGGTGGCTACGACGGGATT
B4: GGGUAUA (DNA:RNA)
RNA: B1 RNA with C26G, C27G, A28U, C29A, C30U
DNA 1: CAATCTGAATTCCGGTCTCCC
DNA 2: TGGTGGCTACGACGGGATT
B5: UCAGCCC (DNA:RNA)
RNA: B1 RNA with G25U, C27A, A28G, A31C
DNA 1: CAATCTGAATTCCGGTCTCCC
DNA 2: TGGTGGCTACGACGGGATT
B6: AGCUCUU (DNA:RNA)
RNA: B1 RNA with G25A, C26G, A28U, C30U, A31U
DNA 1: CAATCTGAATTCCGGTCTCCC
DNA 2: TGGTGGCTACGACGGGATT
B7: CAGGGAA (DNA:RNA)
RNA: B1 RNA with G25C, C26A, C27G, A28G, C29G, C30A
DNA 1: CAATCTGAATTCCGGTCTCCC
DNA 2: TGGTGGCTACGACGGGATT
B8: CAACCUG (DNA:RNA)
RNA: B2 RNA with U25C, G26A, U28C, U29C, A30U
DNA 1: CAATCTGAATTCCGGTCTCCC
DNA 2: TGGTGGCTACGACGGGATT
B9: GCUGCUU (DNA:RNA)
RNA: B1 RNA with C27U, A28G, C30U, A31U
DNA 1: CAATCTGAATTCCGGTCTCCC
DNA 2: TGGTGGCTACGACGGGATT
B10: UUCAAGG (DNA:RNA)
RNA: B1 RNA with G25U, C26U, C29A, C30G, A31G
DNA 1: CAATCTGAATTCCGGTCTCCC
DNA 2: TGGTGGCTACGACGGGATT
B11: CUCCUAU (DNA:RNA)
RNA: B2 RNA with U25C, G26U, A27C, U28C, G31U
DNA 1: CAATCTGAATTCCGGTCTCCC
DNA 2: TGGTGGCTACGACGGGATT
B12: GUACGCA (DNA:RNA)
RNA: B1 RNA with C26U, C27A, A28C, C29G
DNA 1: CAATCTGAATTCCGGTCTCCC
DNA 2: TGGTGGCTACGACGGGATT
B13: CAAUUUA (DNA:RNA)
RNA: B2 RNA with U25C, G26A, A30U, G31A
DNA 1: CAATCTGAATTCCGGTCTCCC
DNA 2: TGGTGGCTACGACGGGATT
B14: CUAGUUC (DNA:RNA)
RNA: B2 RNA with U25C, G26U, U28G, A30U, G31C
DNA 1: CAATCTGAATTCCGGTCTCCC
DNA 2: TGGTGGCTACGACGGGATT
B15: GAGGGUC (DNA:RNA)
RNA: B1 RNA with C26A, C27G, A28G, C29G, C30U, A31C
DNA 1: CAATCTGAATTCCGGTCTCCC
DNA 2: TGGTGGCTACGACGGGATT
B16: GGCGAGU (DNA:RNA)
RNA: B1 RNA with C26G, A28G, C29A, C30G, A31U
DNA 1: CAATCTGAATTCCGGTCTCCC
DNA 2: TGGTGGCTACGACGGGATT
B17: AAGGGGA (DNA:RNA)
RNA: B1 RNA with G25A, C26A, C27G, A28G, C29G, C30G
DNA 1: CAATCTGAATTCCGGTCTCCC
DNA 2: TGGTGGCTACGACGGGATT
B18: AAUGUUC (DNA:RNA)
RNA: B2 RNA with U25A, G26A, A27U, U28G, A30U, G31C
DNA 1: CAATCTGAATTCCGGTCTCCC
DNA 2: TGGTGGCTACGACGGGATT
B19: AGACCGA (DNA:RNA)
RNA: B1 RNA with G25A, C26G, C27A, A28C, C30G
DNA 1: CAATCTGAATTCCGGTCTCCC
DNA 2: TGGTGGCTACGACGGGATT
B20: GUCAGCC (DNA:RNA)
RNA: B1 RNA with C26U, C29G, A31C
DNA 1: CAATCTGAATTCCGGTCTCCC
DNA 2: TGGTGGCTACGACGGGATT

biological target: T1, RBFOX1 RRM; experiment: EMSA; HiTS-Eq, 1 nM pool, 10 min; buffer printed only for the single-RNA assays: 10 mM Tris pH 7.5, 150 mM NaCl, 3.4 mM EDTA, 0.001% NP-40, 30 C; details: tags: His6 N-terminal (pET28a); label: 5' 32P
In short: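 A pool of RNA with 7 randomized nucleotides, 5′-radiolabelled and with DNA-annealed flanks, was equilibrated at 1 nM for 10 min in 50 µL with purified RbFox RRM, wild type or mutant, across increasing protein concentrations. Free RNA was separated by 8% native PAGE, excised, reverse-transcribed, barcoded by PCR and sequenced. Relative association constants were obtained from read-count changes of each RNA species versus the control reaction and normalised to the cognate motif.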

Binder | binding signal
B1 | 0.00242 KA relative to UGCAUGU
B2 | 0.0207 KA relative to UGCAUGU
B3 | 0.0227 KA relative to UGCAUGU
B4 | 0.00754 KA relative to UGCAUGU
B5 | 0.00419 KA relative to UGCAUGU
B6 | 0.00692 KA relative to UGCAUGU
B7 | 0.00897 KA relative to UGCAUGU
B8 | 0.00534 KA relative to UGCAUGU
B9 | 0.0216 KA relative to UGCAUGU
B10 | 0.00451 KA relative to UGCAUGU
B11 | 0.00473 KA relative to UGCAUGU
B12 | 0.00968 KA relative to UGCAUGU
B13 | 0.000937 KA relative to UGCAUGU
B14 | 0.00709 KA relative to UGCAUGU
B15 | 0.0179 KA relative to UGCAUGU
B16 | 0.0177 KA relative to UGCAUGU
B17 | 0.00669 KA relative to UGCAUGU
B18 | 0.0103 KA relative to UGCAUGU
B19 | 0.0069 KA relative to UGCAUGU
B20 | 0.0117 KA relative to UGCAUGU
